{
  "source": "PubChem BioAssay AID588579",
  "about": "(National Center for Advancing Translational Sciences (NCATS), 2011)",
  "note": "Where “and” joins values, the source holds several entries; their conditions need not be identical. Equal values may be shown once. Screen size: about 400,000 compounds; about 2,200 (0.55%) were called active. This list was built around the results that the source calls inconclusive (neither active nor inactive); the mix of calls is not that of the screen. The call rests on the fitted dose curve; in most records, active means well fitted inhibition curve with a large enough effect; inconclusive means small, poorly fitted or top-dose-only effect, or another doubt; inactive means no such curve, though single readings can be large or run the other way. Potencies beside an inconclusive call are fits to weak or partial responses and may not hold up. More than one record can exist for a structure, and the calls need not agree. On the % scale 0 is the no-effect control and ±100 the full control effect; potency means the concentration at half of the fitted maximal effect; tags describe the fitted curve by direction and shape.",
  "data": [
    {"target": "DNA polymerase kappa (Homo sapiens) (UniProt Q9UBT6)", "sequence (Q9UBT6 whole entry, looked up)": "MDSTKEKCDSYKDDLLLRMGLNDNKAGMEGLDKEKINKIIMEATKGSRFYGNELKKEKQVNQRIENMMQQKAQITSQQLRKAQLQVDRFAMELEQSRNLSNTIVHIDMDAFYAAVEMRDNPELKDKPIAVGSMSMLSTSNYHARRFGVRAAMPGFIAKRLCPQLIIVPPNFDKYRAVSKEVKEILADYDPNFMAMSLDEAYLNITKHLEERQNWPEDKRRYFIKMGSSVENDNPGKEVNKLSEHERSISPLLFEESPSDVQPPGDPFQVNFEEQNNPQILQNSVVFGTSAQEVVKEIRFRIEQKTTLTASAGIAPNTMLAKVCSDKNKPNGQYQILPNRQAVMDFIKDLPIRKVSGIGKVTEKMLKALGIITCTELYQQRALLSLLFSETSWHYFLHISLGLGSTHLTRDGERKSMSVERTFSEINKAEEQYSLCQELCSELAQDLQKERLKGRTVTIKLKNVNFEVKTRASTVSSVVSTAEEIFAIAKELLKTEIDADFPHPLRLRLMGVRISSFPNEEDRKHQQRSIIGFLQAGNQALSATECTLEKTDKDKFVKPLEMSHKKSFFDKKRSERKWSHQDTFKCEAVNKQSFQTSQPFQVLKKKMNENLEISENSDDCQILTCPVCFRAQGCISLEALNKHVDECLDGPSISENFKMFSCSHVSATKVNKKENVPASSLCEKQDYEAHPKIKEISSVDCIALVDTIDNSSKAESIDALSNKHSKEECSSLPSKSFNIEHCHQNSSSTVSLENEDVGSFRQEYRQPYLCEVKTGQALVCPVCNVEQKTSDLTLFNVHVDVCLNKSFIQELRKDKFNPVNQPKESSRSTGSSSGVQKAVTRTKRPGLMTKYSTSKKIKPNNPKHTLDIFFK", "test": "qHTS for Inhibitors of Polymerase Kappa", "conditions": "purified Pol kappa, fluorescent DNA synthesis assay, 10 min; series mostly up to 107 µM; activity, negative = inhibition: at the top concentration", "method_in_brief": "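First, compounds were pin-transferred onto 10 nM Pol kappa. After 15 min at room temperature, substrate was added to 50 nM final. Fluorescence was then measured kinetically at 0 and 10 min.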", "values": [
      {"smiles": "CNCCc1ccc(O)c(O)c1", "Potency": "inconclusive: 10 µM [inhibitor, single point] and inconclusive: 37.7 µM [inhibitor, single point]"},
      {"smiles": "O=C1C=CC(=O)c2c(O)cccc21", "Potency": "active: 3.16 µM and active: 2.67 µM"},
      {"smiles": "COc1cc(O)c(C(=O)O)c(-c2cc(O)c(O)cc2C)c1", "Potency": "inconclusive: 56.2 µM [inhibitor, partial curve, poor fit]"},
      {"smiles": "COc1cccc(OC)c1-c1nn2c(-c3n[nH]c4c3CCC4)nnc2s1", "Potency": "active: 79.4 µM"},
      {"smiles": "CC1=NCCc2c1[nH]c1cc(O)ccc21", "Potency": "inconclusive: 12.6 µM [inhibitor, partial curve, poor fit] and inconclusive: 14.1 µM [inhibitor, partial curve, poor fit]"},
      {"smiles": "Cc1cc(/C=C2\\C(=O)NC(=O)N(c3cccc(F)c3)C2=O)c(C)n1-c1ccc(C(=O)O)c(Cl)c1", "Potency": "inconclusive: 56.2 µM [inhibitor, partial curve, poor fit]"},
      {"smiles": "O=C1NC(=O)N(Cc2ccco2)C(=O)/C1=C/c1ccc(-c2cccc([N+](=O)[O-])c2)o1", "Potency": "active: 22.4 µM"},
      {"smiles": "C=CCN1C(=O)NC(=O)C(Cc2ccc(OC)c(OC)c2)C1=O", "note": "(configuration not stated)", "Potency": "inconclusive: 70.8 µM [inhibitor, single point]"},
      {"smiles": "CN(C)C(Cc1ccc(C#N)cc1)C(=O)c1ccccc1", "note": "(configuration not stated)", "activity, negative = inhibition": "inactive: -4.86%"},
      {"smiles": "CC1Oc2cc3c(-c4c(O)cc(O)c5c(O)c6c(cc45)OC(C)C(C)C6=O)c(O)cc(O)c3c(O)c2C(=O)C1C", "note": "(configuration not stated)", "Potency": "active: 35.5 µM"},
      {"smiles": "NCCc1ccc(S(=O)(=O)F)cc1", "Potency": "inconclusive: 100 µM [inhibitor, partial curve, poor fit]"},
      {"smiles": "CCOc1cccc(=NC2CCCCC2)c2c(C)n(C)c(C)c12", "Potency": "inconclusive: 79.4 µM [inhibitor, partial curve]"},
      {"smiles": "CCCNC1=C(C)C(=O)C2=C(C1=O)C(COC(N)=O)[C@]1(OC)C3NC3CN21", "note": "(some centres not stated)", "Potency": "active: 44.7 µM"},
      {"smiles": "C=Cc1cc(OC)c2c(c1)c(=O)oc1c2cc(OC)c2c(O)ccc(C3OC(C)C(O)C(C)(O)C3O)c21", "note": "(configuration not stated)", "Potency": "active: 3.98 µM"},
      {"smiles": "CC(C)CC1C(=O)N2CCCC2C2(O)O[C@@](NC(=O)C3C=C4c5cccc6[nH]c(Br)c(c56)CC4N(C)C3)(C(C)C)C(=O)N12", "note": "(some centres not stated)", "Potency": "inconclusive: 0.199 µM [inhibitor, full curve, poor fit]"},
      {"smiles": "O=C(O)c1ccc(-c2ccc3cc(C45CC6CC(CC(C6)C4)C5)c(O)cc3c2)cc1", "Potency": "inconclusive: 37.7 µM [inhibitor, single point]"},
      {"smiles": "CCCCN1C(=O)/C(=C\\c2ccco2)C(=O)N(CCc2ccccc2)C1=O", "Potency": "active: 25.1 µM"},
      {"smiles": "C[C@H](N)[C@H](O)c1ccc(O)c(O)c1", "Potency": "active: 0.752 µM"},
      {"smiles": "COc1ccc(CN2C(=O)NC(=O)/C(=C\\c3ccco3)C2=O)cc1", "Potency": "active: 25.1 µM"},
      {"smiles": "CC(C)N(CCC(C(N)=O)(c1ccccc1)c1ccccn1)C(C)C", "note": "(configuration not stated)", "Potency": "inconclusive: 5.97 µM [inhibitor, full curve, poor fit]"},
      {"smiles": "O=[N+]([O-])/C=C/c1ccc2c(c1)OCO2", "Potency": "inconclusive: 37.7 µM [inhibitor, partial curve, poor fit]"},
      {"smiles": "CCOc1cccc(N2C(=O)/C(=C/c3ccco3)C(=O)NC2=S)c1", "Potency": "active: 22.4 µM"},
      {"smiles": "CC1=CC(=O)c2c(O)cccc2C1=O", "Potency": "active: 10 µM"},
      {"smiles": "Cc1cccc(N2CCc3c2nc2ccccc2c3N)c1", "Potency": "inconclusive: 1.78 µM [inhibitor, full curve, poor fit]"},
      {"smiles": "CCC(=O)OC1CCC2C3CCC4=CC(=O)CC[C@@]4(C)C3CC[C@]12C", "note": "(some centres not stated)", "Potency": "inconclusive: 10 µM [inhibitor, partial curve, poor fit]"},
      {"smiles": "Cc1ccc(/C=C2\\C(=O)NC(=S)N(c3ccc(F)cc3)C2=O)o1", "Potency": "active: 25.1 µM"},
      {"smiles": "O=C(Cc1ccc(S(=O)(=O)N2CCCC2)s1)N1CCN(c2ccc(F)cc2)CC1", "Potency": "inconclusive: 89.1 µM [inhibitor, partial curve, poor fit]"},
      {"smiles": "CC=C(C)C(=O)O[C@H]1C(C)=C2[C@@H]3OC(=O)[C@@](C)(O)[C@@]3(O)[C@@H](OC(=O)CCC)C[C@](C)(OC(C)=O)[C@@H]2[C@@H]1OC(=O)CCCCCCC", "Potency": "inconclusive: 8.91 µM [inhibitor, single point]"},
      {"smiles": "COc1ccc(N=Cc2c(O)n(CC3CCCO3)c(=O)[nH]c2=O)cc1", "note": "(configuration not stated)", "Potency": "inconclusive: 89.1 µM [inhibitor, partial curve, poor fit]"},
      {"smiles": "O=C1OC(=O)C2C3CCC(O3)C12", "note": "(configuration not stated)", "Potency": "inconclusive: 0.398 µM [inhibitor, partial curve, poor fit]"},
      {"smiles": "CN1Cc2ccccc2[C@@H]2c3cccc4[nH]cc(c34)C[C@H]21", "Potency": "inconclusive: 14.1 µM [inhibitor, single point]"},
      {"smiles": "C=CCN1C(=O)NC(=O)/C(=C/c2ccoc2)C1=O", "Potency": "active: 44.7 µM"},
      {"smiles": "CCc1ccc(N2C(=O)NC(=O)/C(=C\\C=C\\c3ccco3)C2=O)cc1", "Potency": "active: 35.5 µM"},
      {"smiles": "COc1ccc2c(c1)c(CCN1CCOCC1)c(C)n2C(=O)c1cccc(Cl)c1Cl", "Potency": "inconclusive: 37.7 µM [inhibitor, partial curve, poor fit]"},
      {"smiles": "CCCCC/C=C\\C/C=C\\C/C=C\\C/C=C\\CCCC(=O)Nc1ccc(O)cc1C", "Potency": "inconclusive: 25.1 µM [inhibitor, partial curve, poor fit]"},
      {"smiles": "O=C1NC(=O)C(=Cc2ccco2)C(=O)N1", "Potency": "active: 39.8 µM"},
      {"smiles": "O=C(c1cccc2ccccc12)C1CCCN(C2CCC2)C1", "note": "(configuration not stated)", "Potency": "inconclusive: 89.1 µM [inhibitor, single point]"},
      {"smiles": "Cc1ccc(N2C(=O)/C(=C/c3ccc(CN(CCC#N)S(C)(=O)=O)o3)C(=O)NC2=S)cc1", "Potency": "active: 17.8 µM"},
      {"smiles": "C=C(C)[C@H]1CN[C@H](C(=O)O)[C@H]1CC(=O)O", "Potency": "inconclusive: 39.8 µM [inhibitor, single point]"},
      {"smiles": "C=CCc1cc(C=C2C(=O)NC(=O)NC2=O)cc(OC)c1OCc1ccc(C(=O)O)cc1", "activity, negative = inhibition": "inactive: -20.3%"},
      {"smiles": "CN(C)C1C(=O)C(C(N)=O)=C(O)[C@@]2(O)C(=O)C3=C(O)c4c(O)cccc4[C@@](C)(O)C3[C@H](O)C12", "note": "(some centres not stated)", "Potency": "active: 10 µM"},
      {"smiles": "Nc1nc(N)c2nc(CNc3ccc(C(=O)NC(CCC(=O)O)C(=O)O)cc3)cnc2n1", "note": "(configuration not stated)", "Potency": "inconclusive: 56.2 µM [inhibitor, partial curve, poor fit] and inconclusive: 42.3 µM [inhibitor, partial curve, poor fit]"},
      {"smiles": "CC1(C)C[C@H]2C=C(C=O)[C@]3(C=O)C[C@]3(C)[C@H]2C1", "Potency": "inconclusive: 89.1 µM [inhibitor, partial curve, poor fit]"},
      {"smiles": "C[C@@H]1CC[C@@]2(OC1)O[C@H]1C[C@H]3[C@@H]4CC=C5C[C@@H](O)[C@H](O)C[C@]5(C)C4CC[C@]3(C)[C@H]1[C@@H]2C", "note": "(some centres not stated)", "Potency": "inconclusive: 89.1 µM [inhibitor, partial curve, poor fit]"},
      {"smiles": "CC(N)[C@H](O)c1ccc(O)c(O)c1", "note": "(some centres not stated)", "Potency": "active: 14.1 µM and active: 2.99 µM"},
      {"smiles": "COc1cc2c3cc1Oc1cc(ccc1O)C[C@@H]1c4c(cc(OC)c(O)c4Oc4ccc(cc4)C[C@H]3N(C)CC2)CCN1C", "Potency": "inconclusive: 50.1 µM [inhibitor, partial curve, poor fit]"},
      {"smiles": "O=C(O)c1cccc2c1NC(c1cccc([N+](=O)[O-])c1)C1CC(Sc3ccccc3[N+](=O)[O-])C(Cl)C21", "note": "(configuration not stated)", "Potency": "inconclusive: 89.1 µM [inhibitor, single point]"},
      {"smiles": "CCCCN1C(=O)/C(=C/c2ccc(N(C)C)cc2)C(=O)N(Cc2ccco2)C1=O", "Potency": "active: 25.1 µM"},
      {"smiles": "Cc1cc(/C=C2/C(=O)NC(=O)N(Cc3ccco3)C2=O)c(C)n1-c1ccccc1", "Potency": "active: 70.8 µM"},
      {"smiles": "CN(C)[C@@H]1C(=O)C(C(N)=O)=C(O)[C@@]2(O)C(=O)C3=C(O)c4c(O)ccc(Cl)c4[C@@](C)(O)C3C[C@@H]12", "note": "(some centres not stated)", "Potency": "active: 79.4 µM"},
      {"smiles": "O=C1NC(=S)NC(=O)C1C(=O)Nc1ccccc1", "activity, negative = inhibition": "inactive: -9.12% [at 60.1 µM]"},
      {"smiles": "COC(=O)c1cc(Oc2ccc(Cl)cc2Cl)ccc1[N+](=O)[O-]", "activity, negative = inhibition": "inactive: 0.121% [at 60.1 µM]"},
      {"smiles": "CN1C(=O)NC(=O)/C(=C/c2ccc([N+](=O)[O-])s2)C1=O", "Potency": "inconclusive: 89.1 µM [inhibitor, single point]"},
      {"smiles": "CCOC(=O)C1CCN(/C=C2/C(=O)NC(=O)N(Cc3ccco3)C2=O)CC1", "Potency": "active: 35.5 µM"},
      {"smiles": "Cc1ccc(NC(=O)c2ccc3snnc3c2)cc1", "Potency": "inconclusive: 89.1 µM [inhibitor, partial curve, poor fit]"},
      {"smiles": "C=C(C)[C@@H]1CC[C@]2(C(=O)O)CC[C@]3(C)[C@H](CCC4[C@@]5(C)CC[C@H](O)C(C)(C)[C@@H]5CC[C@]43C)[C@@H]12", "note": "(some centres not stated)", "Potency": "inconclusive: 8.91 µM [inhibitor, single point]"},
      {"smiles": "O=C1NC(=S)N(C2CC2)C(=O)/C1=C/c1ccc2c(c1)CCN2CCCCl", "Potency": "active: 39.8 µM"},
      {"smiles": "Cn1c(O)c(/C=C/C=Nc2ccccc2)c(=O)n(C)c1=S", "Potency": "inconclusive: 10 µM [inhibitor, full curve, poor fit]"},
      {"smiles": "C/C=C1/C[C@@H](C)[C@@](C)(O)C(=O)OCC2=CCN3CC[C@@H](OC1=O)[C@@H]23", "Potency": "inconclusive: 89.1 µM [inhibitor, single point]"},
      {"smiles": "Oc1cc(O)c2c(c1)OC(c1cc(O)c(O)c(O)c1)C(O)C2", "note": "(configuration not stated)", "Potency": "active: 3.98 µM"},
      {"smiles": "Nc1nc(/C(=C/CC(=O)O)C(=O)NC2C(=O)N3C(C(=O)O)=CCSC23)cs1", "note": "(configuration not stated)", "Potency": "inconclusive: 33.6 µM [inhibitor, partial curve, poor fit]"},
      {"smiles": "CC/C(CC(c1ccccc1)c1c(O)c2ccccc2oc1=O)=N\\NC(N)=S", "note": "(configuration not stated)", "Potency": "inconclusive: 89.1 µM [inhibitor, single point]"}
    ]}
  ]
}
